Experimental data taken from PubChem BioAssay AID686978 (National Center for Advancing Translational Sciences (NCATS), 2013).
In all, about 420,000 compounds went through this assay and about 64,000 (15%) were called active. Inconclusive results, whose numbers are uncertain, are shown with a selection of clear calls. The call rests on the fitted dose curve; in most records, active means well fitted inhibition curve with a large enough effect; inconclusive means small, poorly fitted or top-dose-only effect; inactive means flat fitted curve, though single readings scatter. A potency beside an inconclusive call is a rough fit, not a confirmed value.

Test: qHTS for Inhibitors of human tyrosyl-DNA phosphodiesterase 1 (TDP1): qHTS in cells in absence of CPT; further: nearly all actives have a fitted effect of over 55% in size
Conditions: DT40 Tdp1-/- hTDP1 cells, no CPT, ATP luminescence, 48 h
How it was run: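 A cellular qHTS used chicken DT40 cells lacking endogenous Tdp1 but carrying stably transfected human TDP1. Compounds were applied without camptothecin, and cell growth kinetics were judged by ATP-dependent luminescence after ≥48 hr.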

[1] = activity change, negative = growth inhibition: at 46.2 µM (top of the series) unless noted
On the % scale 0 is the no-effect control and ±100 the full control effect; potency means the concentration at half of the fitted maximal effect; tags describe the fitted curve by direction and shape.

In the case of CCOc1cc(CNc2ccc(N(C)C)cc2)cc(Br)c1OCC(=O)NC(C)(C)C, the Potency [1] was active: 20.6 µM.

In the case of Cc1ccc(OCC(O)CNC2CCCC2)cc1C (centres undefined), the Potency [1] was inconclusive: 5.8 µM [inhibitor, single point].

With CCOc1ccc(CC(=O)N/N=C/c2sccc2C)cc1 the Potency [1] was “inactive”.

With CCC/C=C/c1ccc(CN2C(C)C(=O)N(Cc3cn(CCOCOC)nn3)CCS2(=O)=O)cc1 (centres undefined) the Potency [1] was inconclusive: 23.1 µM [inhibitor, single point].

In the case of Cc1nc2c(OCc3ccc(C#N)cc3)cccn2c1N(C)C(=O)CCC1CCCC1, the Potency [1] was inconclusive: 25.9 µM [inhibitor, single point].

In the case of Cn1nc(C(=O)N2CCN(c3ccc(Cl)cc3)CC2)c2c1-c1ccccc1SC2, the Potency [1] was inconclusive: 29.1 µM [inhibitor, single point].

In the case of CCOc1ccc(/C=C(\C(=O)O)c2ccc(S(=O)(=O)N3CCCCC3)s2)cc1OC, the Potency [1] was “inactive”.

With COc1ccc(COc2cc(-c3cccc(OC)c3)nc3ccc(NC(=O)c4cccnc4)cc23)cc1 the Potency [1] was inconclusive: 29.1 µM [inhibitor, single point].

With N#Cc1c(N)[nH]c2ccc(Sc3ccccc3)cc12 the Potency [1] was active: 0.731 µM.

For Cc1ccc(C)c(N2CCN(c3ncnc4c3nc3n4CCCCC3)CC2)c1, the Potency [1] was inconclusive: 20.6 µM [inhibitor, single point].

With CCC(C)c1ccc(NC(=S)NCc2cccs2)cc1 (centres undefined) the Potency [1] was inconclusive: 29.1 µM [inhibitor, single point].

In the case of Cc1cc(C)c(S(=O)(=O)N2CCOC2CNC(=O)C(=O)NCc2ccncc2)c(C)c1 (centres undefined), the Potency [1] was “inactive”.

With CCCCNC(=O)C1CCN(Cc2ccc(OCc3ccccc3)c(OC)c2)CC1 the Potency [1] was inconclusive: 29.1 µM [inhibitor, single point].

For COc1ccc(NC(=O)c2cc(C3CCCCN3C(=O)C3CCCCC3)on2)c(C)c1 (centres undefined), the Potency [1] was inconclusive: 25.9 µM [inhibitor, single point].

With CCN(Cc1ccccc1)S(=O)(=O)c1cc2[nH]c(=O)c(=O)[nH]c2cc1C the Potency [1] was “inactive”.

In the case of O=C(NN1CCOCC1)c1ccccc1, the Potency [1] was “inactive”.

In the case of C[C@H]1O[C@@H](O[C@H]2CC[C@@]3(C)C(CC[C@]4(C)C3C=C[C@]35OC[C@@]6(CCC(C)(C)C[C@H]63)[C@@H](O)C[C@]54C)[C@]2(C)CO)[C@H](O)[C@@H](O[C@@H]2O[C@H](CO)[C@@H](O)[C@H](O)[C@H]2O)[C@H]1O (some centres undefined), the Potency [1] was inconclusive: 29.1 µM [inhibitor, single point].

With COC(=O)c1cccc(NC(=O)CSc2nnc(COc3ccccc3)n2C)c1 the Potency [1] was “inactive”.

For CCOC(=O)N1CCC(NC(=O)c2ccc3nc(N4CCOCC4)sc3c2)CC1, the Potency [1] was “inactive”.

With O=C(c1cccs1)C1C(c2ccc(Br)cc2)NC(=S)NC1(O)C(F)(F)F (centres undefined) the Potency [1] was “inactive”.

For CCOC(=O)C(=CNc1cc(C)ccc1[N+](=O)[O-])C(=O)OCC, the Potency [1] was inconclusive: 23.1 µM [inhibitor, partial curve].

With CSc1ccccc1C(=O)C1CCCN(C(=O)c2cc(C(C)C)no2)C1 (centres undefined) the Potency [1] was inconclusive: 20.6 µM [inhibitor, single point].

In the case of CCOc1ccc(/C=C/c2c([N+](=O)[O-])c(=O)n(C)c(=O)n2C)cc1, the Potency [1] was inconclusive: 20.6 µM [inhibitor, single point].

For O=C(CN1C(=O)NC2(CCCC2)C1=O)OCCOc1ccc(F)cc1, the Potency [1] was inconclusive: 25.9 µM [inhibitor, partial curve].

With CC1CC(C)CN(c2ncc3c(n2)CC(c2ccccc2Cl)CC3=O)C1 (centres undefined) the Potency [1] was active: 20.6 µM.

With C=CCO/N=C(\C)c1c(O)c(C)c(-c2ccccc2)n(-c2ccccc2)c1=O the Potency [1] was “inactive”.

For COc1ccc(-n2c(SCC(=O)Nc3cc(C(=O)O)ccc3C)nc3ccccc3c2=O)cc1Cl, the Potency [1] was inconclusive: 29.1 µM [inhibitor, single point].

For O=c1[nH]c2ccccc2c2ccccc12, the activity change, negative = growth inhibition [1] was inconclusive: -31.6% [inhibitor] [at 92.5 µM] and the activity change, negative = growth inhibition (at 46.2 µM (top of the series)) was inactive: 8.22%.

In the case of CCS(=O)(=O)c1ccc(C(=O)Nc2ccccc2)c(Cl)c1Cl, the Potency [1] was inconclusive: 11.6 µM [inhibitor, partial curve].

With C/C=C1\NC(=O)[C@H](C)NC(=O)[C@@H](NC(=O)[C@H](Cc2ccc(O)cc2)NC(=O)[C@@H](NC(=O)/C(C)=C/C)C(C)C)[C@@H](C)OC(=O)[C@H](CC(C)C)NC(=O)[C@@H](CCC(=O)O)NC1=O the Potency [1] was “inactive”.

In the case of Cc1ccc2[nH]c(=O)c(CN(CC3CCCO3)S(=O)(=O)c3cccc4nsnc34)cc2c1 (centres undefined), the Potency [1] was inconclusive: 16.4 µM [inhibitor, partial curve].

For O=C1CN(C(=O)c2cc(Br)c(Br)s2)c2ccccc2N1, the Potency [1] was active: 13 µM.

In the case of CCc1c(C#N)sc(C(N)=O)c1CC, the Potency [1] was inconclusive: 5.8 µM [inhibitor, partial curve, poor fit].

With CN(C)CCNc1ncnc2c1ncn2[C@H]1CN(Cc2ccc(F)cc2)C[C@@H](CO)O1 the Potency [1] was “inactive”.

In the case of Cn1c(=O)c2nc(SCC(=O)Nc3cc(Cl)ccc3Cl)n(C)c2n(C)c1=O, the Potency [1] was inconclusive: 13 µM [inhibitor, partial curve].

With CC(C)(C)c1ccc(C(=O)Nc2ccc(CN3CCS(=O)(=O)CC3)cc2)cc1 the Potency [1] was active: 20.6 µM.

For Cc1ccc(N(CC(=O)N2CCCCCC2)S(C)(=O)=O)cc1, the Potency [1] was “inactive”.

For Cc1cccc(C)c1-n1nnnc1C(c1ccnc2ccccc12)N(C)Cc1ccc(Cl)c(Cl)c1 (centres undefined), the Potency [1] was inconclusive: 20.6 µM [inhibitor, single point].

In the case of CCCn1c(SCC(=O)Nc2nccs2)nnc1-c1cccnc1, the Potency [1] was “inactive”.

In the case of COc1cc(/C=N/NC(=O)c2sc3ccccc3c2Cl)ccc1OC(=O)c1ccc([N+](=O)[O-])cc1, the Potency [1] was inconclusive: 16.4 µM [inhibitor, partial curve].

In the case of COc1ccc(NC(=O)CC(c2ccc(F)cc2)c2ccc(OC)cc2)cc1 (centres undefined), the Potency [1] was active: 14.6 µM.

For O=C(CSc1ccc(S(=O)(=O)N2CCCCC2)cn1)Nc1ccccc1Br, the Potency [1] was inconclusive: 23.1 µM [inhibitor, single point].

For COC(=O)C1=C(N)Oc2cc(C)[nH]c(=O)c2C1c1cccnc1 (centres undefined), the Potency [1] was “inactive”.
